Experimental data published in the RNAGym collection of RNA variant scans (doi:10.7554/elife.90254).
The source gives no read counts; variants with many changes may rest on few reads.

B1: OR4K15 (parent)
chain: GUUAACGGUCAUAGGCCAUGGAAACUAGGAGCACCAUUUCGCUGCCAGUGAAGAAAUGAACAAAGAAAAUCUGGGCCAGGCAGGCAUCAAAAGAAAUAGUCUUGCGCUCAACCAGAAAGUCUGUAAUCAUUUUAAGGGUA

Variants of: B1
Test: self-cleavage, relative activity (ratio to wild type); higher = more cleavage; in vitro, sequencing; the parent is a self-cleaving ribozyme

Row | Variant | self-cleavage
1 | A64G U70A A82G | 0.22
2 | A68G A89G A118G | 0.83
3 | A67G A78G A89G A90G | 0.25
4 | A67G A69G A86G | 1.17
5 | A67G U87C A89G | 1.7
6 | A67G A82G A90G U108C A111G | 0
7 | A66U A86U U97A A110G | 0.17
8 | A66G U72C A95G A96G | 0.12
9 | A67G U87C A96U A126U | 1.09
10 | A64G U103A A114U U122C | 0.01
11 | A66G C77U U122C A140G | 1.54
12 | A62G A114G U124C | 0.11
13 | A67G A95G G123A | 1.68
14 | A63G A68G G138A | 1.55
15 | A68G G74A A94G U122C U130C | 0.04
16 | A63U U103C U132A | 0.44
17 | A62G A90G A117G | 1.27
18 | A68G A86U U103A | 0.84
19 | A67G C109A U122A | 0.18
20 | A62U A67G C77A A92U | 0.54
21 | A64G A69G G137A | 0.8
22 | A67G A68G G73U A82G A126G | 0.12
23 | A62G A82G A140G | 0.6
24 | A67G U87C A111G | 0.02

Row | Variant | self-cleavage
25 | A62C U102C A135G | 2.44
26 | A63G A64G A111C A118G | 0.02
27 | A64G G83A A95G U132A | 2.38
28 | A64G U122C U132C | 2.26
29 | A68G A96G U127A | 1.15
30 | A68G A91G G115A A126G | 0.03
31 | A64G C77U U124C | 1.49
32 | G65A U102A G104A U108A | 0
33 | A68G A82C U133A | 0.19
34 | A66G U97C U103C | 0.73
35 | A67G A69G A117G | 1.17
36 | A63G A66G A126G | 0.6
37 | A68G A69G A94U U132C | 0.55
38 | A67G A78U U130C | 0.11
39 | A63G A86G U97A | 1.35
40 | A67G A82G A90G | 0.18
41 | A63G A114G A125C | 0.6
42 | A62G A89C U131C | 1.02
43 | A63G U102C A125G | 0.64
44 | A62U U100A U122C | 0.81
45 | A66G U72A A89U | 0.35
46 | A62U A64G U120C | 0.74
47 | A63G U72G A78U A140G | 0.07
48 | A63G U122C U131C | 1.07

Row | Variant | self-cleavage
49 | A67G U87C A89C U127C | 0.22
50 | A64G A125G U133C | 0.71
51 | A67G U72A G83U U87C U132A A140G | 0.13
52 | A63G A89U U97C A117G | 1.84
53 | A67G A78U A86G | 0.14
54 | A63G A82G A96G A111C U120C | 0.01
55 | A63C U102C A116U | 0.73
56 | A64U A89G A96G | 0.85
57 | A62U A94G A116U U130C | 0.16
58 | A64G C105U A126G G136C | 0.06
59 | A62C A92G A94G | 0.8
60 | A64G U100A G115A G137A | 0
61 | A63G U102C U103C G119C | 0.19
62 | A63U U70A A134G | 1.35
63 | A63G A96G U102A A125C A140G | 1.29
64 | A62C A96G U120C | 1.17
65 | A67G A90G U131C | 0.48
66 | A67G A90G A92G A98G U120A A126G A140G | 0.24
67 | A68C U70C U87C | 0.73
68 | A66G A92G C105U | 0
69 | A63G A68G A86U A95G U124C | 1.54
70 | A64G A90G A117G | 0.82
71 | A66G A91G G106A | 0
72 | A66U A117G U127A | 1.46

Row | Variant | self-cleavage
73 | A63G A69G A86C U120C U127C U139A | 0.15
74 | A68G A90G U102C | 2.25
75 | A67G U87C A94U A117G A129U | 0.93
76 | A62C U70C G75A A135G | 0.09
77 | A63G U70C A126U | 0.98
78 | A63G A78U U133A A135U | 0.31
79 | A67G U87C U102C | 1.83
80 | A64U A68G A118G | 0.79
81 | A63G A114G U133C | 0.41
82 | A62U U103A U108C A135G | 0.03
83 | A68G A118C U122C | 0.67
84 | A64G A94G A129G | 0.52
85 | A63G A116G A135U | 0.47
86 | A67G U87C U103C U124A | 0.19
87 | A62U U72C U100A | 0.08
88 | A67G A117G U133C | 2.42
89 | A62G A95G U103A U122A | 1.05
90 | A62G A82C A118C | 0.09
91 | A67G A96G U97C | 0.16
92 | A66G A82U A96U | 0.25
93 | A62G A96G U122C U124C | 1.81
94 | A66U A78G A117U | 0.12
95 | A63G A96G A118G | 1.7
96 | A64G A91U U103C | 0.76

Row | Variant | self-cleavage
97 | A64G U108C A116G | 0.01
98 | A63G A82G A96C | 0.28
99 | A66G A96G A118G U132C | 1.56
100 | A66U A86G A91G A94G U100C | 1.37
101 | A63G A64G A140U | 2.08
102 | A67U A68G G75A U127A | 0.08
103 | A62G U102C A126G A135U | 0.88
104 | A67C A68U A111G | 0.01
105 | A68G G93A A118G | 1.2
106 | A64G U103C U120C A126G | 0.24
107 | A67G A94U A126G | 0.82
108 | A67G U102A A114G | 0.39
109 | A63G A67G A69G A90G A96G U132C | 0.57
110 | A62U U87C A117G | 1.8
111 | A67G G75A A78U U102C U131A | 0.22
112 | A66G A96G A126G | 0.52
113 | A62U G79A A111U | 0.02
114 | A62G A95G A116G | 1.46
115 | A67U A86G U122C U132G | 2.09
116 | A68G A78U A92G U100C | 0.91
117 | A64G U72C A117G | 0.13
118 | A62G A82G A89G U120C A129G | 0.15
119 | A66G U122A A126U | 1.06
120 | A67G A117G U120C | 0.5

Row | Variant | self-cleavage
121 | A67G A114G A116G A117U | 0.07
122 | A66U A96G A110G | 0.08
123 | A67G U70C A118C | 0.55
124 | A63G U87C A96G A117G | 2.11
125 | A63G U70C A82U | 0.12
126 | A68G A98G A116G | 0.19
127 | A63U U72C U97C | 0.15
128 | A63U A86U U87C A92G A129U | 0.21
129 | A67G A86G A111G A129G | 0
130 | A64G G75A A94G C112U | 0.02
131 | A62U A92G A117G | 1.06
132 | A67G U87C A126G U130C U132C | 0.46
133 | A68G U70C A98G | 0.25
134 | A64G U72A U102A | 0.13
135 | A68G A90G U122C | 0.1
136 | A64G A110C A135G | 0.18
137 | A63U A67G A91G U97C U122C | 0.27
138 | A68G A111G A129G U132C G137A | 0.03
139 | A67G A125U U131G | 1.6
140 | A64U C81U U108C | 0.01
141 | A67G A68G A69G | 1.01
142 | A63G U87A U100A U127A | 0.5
143 | A66G A92G A117U | 0.6
144 | A62C U70C A94G | 1.5

Row | Variant | self-cleavage
145 | A67U A68C U133C | 0.78
146 | A62U A63C U87G | 0.4
147 | A63G A98G A140U | 1.17
148 | A67G A117G U130C | 1.4
149 | A64G A96U U122C | 0.76
150 | A62G U102A U103C | 0.22
151 | A63G A69G U87C | 1.96
152 | A62G A94U A95G A116G U133C A134U | 1.68
153 | A62G A116G U130C | 0.13
154 | A67G A91G U122C | 2.56
155 | A63U A90G A95G | 2.37
156 | A63U A68G U120A | 2.46
157 | A62G U87C A135U | 1.44
158 | A62G U127C G136U U139C | 1.65
159 | A66C G73U A98G U102A A126G | 0.07
160 | A62G G75A C112U | 0
161 | A64G A110U U130C | 0.51
162 | A62U U70A A117G | 0.86
163 | A63G A96G A111G A129G | 0.02
164 | A67G A117G U122A | 1.97
165 | A66G A67G A89G U108A | 0.01
166 | A63U G74C A117U | 0.11
167 | A62G A68G A96G | 2.31
